Article PMC4336329 (PLoS ONE, 2015)
Hit rate of the full screen: of about 310,000 compounds, about 2,200 (0.71%) showed an effect of 50% or more. Effects have a minus sign here. The list shows a part of the results.

target: human ether-à-go-go-related gene (hERG) potassium channel (human, UniProt Q12809); experiment: primary screen, population patch clamp on CHO cells stably expressing hERG
Sequence (Q12809 whole entry, looked up): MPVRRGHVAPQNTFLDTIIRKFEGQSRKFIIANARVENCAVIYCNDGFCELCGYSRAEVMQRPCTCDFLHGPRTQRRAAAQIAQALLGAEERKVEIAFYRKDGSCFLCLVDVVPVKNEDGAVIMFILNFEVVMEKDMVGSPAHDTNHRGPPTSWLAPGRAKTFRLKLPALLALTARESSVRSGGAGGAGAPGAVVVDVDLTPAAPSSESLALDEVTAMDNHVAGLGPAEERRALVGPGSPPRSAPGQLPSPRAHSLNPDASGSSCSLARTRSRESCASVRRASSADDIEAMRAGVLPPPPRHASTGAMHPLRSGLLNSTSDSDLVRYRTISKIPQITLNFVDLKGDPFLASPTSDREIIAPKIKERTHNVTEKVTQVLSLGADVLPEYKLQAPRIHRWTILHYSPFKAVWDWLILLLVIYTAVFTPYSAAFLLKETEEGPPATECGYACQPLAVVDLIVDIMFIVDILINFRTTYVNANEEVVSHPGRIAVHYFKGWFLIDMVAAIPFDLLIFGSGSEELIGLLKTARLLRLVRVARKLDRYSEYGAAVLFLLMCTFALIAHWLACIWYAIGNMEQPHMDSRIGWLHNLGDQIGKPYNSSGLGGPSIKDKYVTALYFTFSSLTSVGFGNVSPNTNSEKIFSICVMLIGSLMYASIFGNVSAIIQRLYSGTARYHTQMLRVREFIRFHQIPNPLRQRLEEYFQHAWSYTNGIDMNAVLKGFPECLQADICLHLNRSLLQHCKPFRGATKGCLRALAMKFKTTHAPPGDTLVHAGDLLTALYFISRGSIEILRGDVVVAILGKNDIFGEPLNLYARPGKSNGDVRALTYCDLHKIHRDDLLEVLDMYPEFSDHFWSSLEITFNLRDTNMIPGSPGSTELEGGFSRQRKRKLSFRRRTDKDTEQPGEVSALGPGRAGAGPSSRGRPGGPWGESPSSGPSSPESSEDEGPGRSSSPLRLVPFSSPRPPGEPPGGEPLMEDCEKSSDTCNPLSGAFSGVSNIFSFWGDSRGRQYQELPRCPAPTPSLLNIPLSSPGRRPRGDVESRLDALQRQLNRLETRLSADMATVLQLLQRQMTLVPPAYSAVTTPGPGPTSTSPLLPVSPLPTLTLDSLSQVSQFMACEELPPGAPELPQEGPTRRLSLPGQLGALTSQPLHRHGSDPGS

Row | Structure (SMILES) | hERG current change (%, negative = inhibition) at 1uM [%]
1 | CC1=CC(C)=[NH+]c2ccccc2N1.O.[Cl-] | 13.3
2 | COc1ccc(OCc2nnc(SCC(=O)N(C)Cc3ccccc3)n2N)cc1 | 9.25
3 | CCOC(=O)c1cc2c(ccn2C)n1CC(=O)N1CCC(Cc2ccccc2)CC1 | 4.31
4 | COC(=O)CCN1CCN(S(=O)(=O)c2ccccc2Br)CC1.O=C(O)C(=O)O | 7.65
5 | O=C(NCCCN1CCOCC1)c1cc(-c2ccc(Br)cc2)nc2ccccc12 | -3.18
6 | CCc1c(C)sc(NC(=O)OC)c1C(=O)N1CCOCC1 | 0.475
7 | CCCOc1ccc(C(=O)Nc2ccccc2[N+](=O)[O-])cc1 | 8.01
8 | O=S(=O)(c1ccc(Br)cc1)N1CCC2(CC1)OCCO2 | 15.2
9 | Cn1ncc(Cl)c1C(=O)Nc1ccc(Cl)cn1 | 9.75
10 | COc1cc(-c2nn3c(-c4ccccc4)nnc3s2)cc(OC)c1OC | 3.29
11 | O=C(CNS(=O)(=O)c1ccc(Br)s1)NCc1ccc(F)cc1 | 1.24
12 | O=C1c2oc3ccccc3c(=O)c2C(c2cccs2)N1CCCN1CCOCC1 (centres unmarked) | 7.4
13 | CCOc1ccc(/C=C/[N+](=O)[O-])c2ccccc12 | 5.9
14 | CC(C)(C)c1nc2ccccc2[nH]1 | 10.8
15 | COc1ccc(C2C3=C(CCCC3=O)Nc3nc(SCc4ccccc4)nn32)cc1OC (centres unmarked) | -1.15
16 | CCc1ccc(NC(=O)C2=CC(c3cccs3)=NS(=O)(=O)N2C)cc1 | 9.92
17 | CCn1c(C)c(C)c2cc(C(=O)NCCCN3CCCC3)ccc21 | 13.5
18 | Cc1cc(=O)oc(C)c1C(=O)NC1CCCCCCC1 | 5.59
19 | CCS(=O)(=O)N1Cc2ccccc2CC1C(=O)Nc1cccc(C)c1 (centres unmarked) | 2.72
20 | CCOC(=O)/C(=C\c1ccc(Cl)cc1)c1nc2sc(C)c(C)c2c(=O)[nH]1 | 15.9
21 | O=C(NC1CC2CCCC(C1)N2Cc1ccco1)NC12CC3CC(CC(C3)C1)C2 (centres unmarked) | -4.75
22 | Cn1cc(Br)c(C(=O)Nc2sc3c(c2C#N)CCC3)n1 | 14

Row | Structure (SMILES) | hERG current change (%, negative = inhibition) at 1uM [%]
23 | O=C(COC(=O)CCCN=C1NS(=O)(=O)c2ccccc21)NNC(=O)c1ccccc1 | 7.73
24 | CCNC(=S)N1CCN(Cc2ccccc2)CC1.O=C(O)C(=O)O | -7.37
25 | Cc1noc(C)c1C(=O)Nc1c(F)cc(F)cc1Br | 3.26
26 | O=C(Oc1ccc(Br)cc1C(=S)N1CCOCC1)c1cccc([N+](=O)[O-])c1 | 16.4
27 | O=C(Nc1ccc(N2CCOCC2)cc1N1CCOCC1)c1ccc([N+](=O)[O-])cc1 | -6.01
28 | Cc1ccc(-c2cc(C(=O)N3CCN(c4ncccn4)CC3)c3cc(Br)ccc3n2)o1 | -3.49
29 | Cc1nnc(N2CCN(c3ccccc3)CC2)[nH]c1=O | 2.58
30 | COc1ccc(-n2c(SCC(=O)Nc3ccc(NC(C)=O)cc3)nc3c([nH]c4ccccc43)c2=O)cc1OC | 11.2
31 | COc1ccc(S(=O)(=O)N(Cc2ccco2)Cc2cc3ccccc3[nH]c2=O)cc1 | 10
32 | O=C(NN1C(=O)c2ccccc2C1=O)c1ccncc1 | 13.3
33 | Cc1ccc(S(=O)(=O)N2CCCOC2CNC(=O)C(=O)NCc2ccccc2C)cc1 (centres unmarked) | 10.6
34 | Cc1cc(N2CCCCC2)ccc1[N+](=O)[O-] | 11
35 | COc1ccc(S(=O)(=O)N2CCN(C(=O)N(C)C)C2C)cc1 (centres unmarked) | 16.8
36 | COc1ccc(C(=O)N(CN2CCCC2=O)c2ccc(C)cc2)cc1 | 3.12
37 | COc1ccc(NC(=O)CN(C)C(=O)C(C)Sc2ccccc2)cc1 (centres unmarked) | 6.9
38 | CCNc1nc(Oc2ccc(C(=O)OCC)cc2)nc(N2CCOCC2)n1 | 8.69
39 | COCCCNc1nc2nonc2nc1N1CCN(C2CCCC2)CC1 | 10.5
40 | COc1ccc([N+](=O)[O-])cc1NC(=O)C1(c2ccccc2)CCOCC1 | 2.81
41 | CNC(=O)c1[nH]cnc1C(=O)N[C@@H](C)C(=O)OC(C)(C)C | 19.4
42 | Cc1ccc(S(=O)(=O)N/N=C2/CC(c3ccccc3)Oc3ccccc32)cc1[N+](=O)[O-] (centres unmarked) | 14.4
43 | O=C(CSc1n[nH]c(=O)[nH]c1=O)Nc1ccc2c(c1)C(=O)c1ccccc1C2=O | 2.23
44 | Cc1cc(C)cc(OCC(=O)OCC(=O)N(C)CC(=O)Nc2ccc(F)cc2)c1 | 4.79

Row | Structure (SMILES) | hERG current change (%, negative = inhibition) at 1uM [%]
45 | O=C(Cn1ncc2c(=O)oc3ccccc3c21)NCC1CCCO1 (centres unmarked) | 14
46 | Cc1cccc(C)c1OCC(O)CN1CCc2ccccc2C1.Cl (centres unmarked) | -24.3
47 | COC(=O)COc1ccc(-c2nn(C)c(=O)c3ccccc23)cc1 | 5.27
48 | O=C(Nc1cccc(NC(=O)c2c(F)cccc2F)n1)c1c(F)cccc1F | 9.81
49 | CN(C)c1ccc(NS(=O)(=O)c2cc3c4c(c2)CC(=O)N4CCC3)cc1 | 16.6
50 | COc1ccc(S(=O)(=O)NCCc2csc(C)n2)cc1C | 7.79
51 | COC(=O)C1=C(C(=O)OC)[C@@H]2N(C)c3ccccc3[C@@]23C[C@@H](C(=O)OC)N(C(=O)c2cc(C)oc2C)C3=N1 | -3.23
52 | Cc1coc2cc3oc(=O)cc(C)c3cc12 | 11.8
53 | O=C(NNC(=O)c1ccco1)c1ccccc1 | 2.43
54 | O=C(Nc1cccnc1)C1CC(=O)N(c2ccc(F)cc2)C1 (centres unmarked) | 18.8
55 | O=C1C(=O)N(CCN2CCOCC2)C(c2ccccc2F)/C1=C(\O)c1ccc(S(=O)(=O)N2CCOCC2)cc1 (centres unmarked) | 11.4
56 | CCCCCCSc1ccc([C@H]2N[C@@](C)(C(=O)OC)[C@H]3C(=O)N(C)C(=O)[C@@H]23)cc1.O=C(O)C(F)(F)F | 3.72
57 | CC(C)n1c(Oc2ccc(F)cc2)nc2c1c(=O)n(C)c(=O)n2C | -0.311
58 | O=C(Cn1nnc(-c2ccncc2)n1)N1CCc2ccccc21 | 18.3
59 | OC(CCN1CCCCC1)c1ccc(-c2ccccc2)cc1 (centres unmarked) | -4
60 | O=C(COC(=O)COc1ccccc1)Nc1cccc([N+](=O)[O-])c1 | 12
61 | COc1ccc(-c2cc(=O)oc3cc(OC(C)C(=O)NC4CC4)ccc23)cc1 (centres unmarked) | 11.3
62 | Cc1cccc(OCc2nnc(SCC(=O)Nc3cccc(C(=O)N4CCOCC4)c3)o2)c1C | 6.86
63 | COc1ccc(N(CC(=O)NCc2ccc(F)cc2)S(=O)(=O)c2c(C)noc2C)cc1 | 7.44
64 | Cc1cccc(-n2ncc(C#N)c2N)c1 | 16.8
65 | CN(C)S(=O)(=O)c1cccc(C(=O)OCC(=O)c2c(N)n(C)c(=O)n(C)c2=O)c1 | 3.79
66 | CSc1ccccc1NC(=O)c1ccc([N+](=O)[O-])cc1 | 2.08

Row | Structure (SMILES) | hERG current change (%, negative = inhibition) at 1uM [%]
67 | CCN(CC)C(=O)CSc1nnc2sc3ccccc3n12 | 12.8
68 | CC(=O)c1cc2c(cc1N(C(=O)c1ccco1)C(C(=O)NC1CCCC1)c1ccccc1F)OCO2 (centres unmarked) | 13.2
69 | Cc1cc(C(=O)NNC(=O)CN2C(=O)NC3(CCCCC3)C2=O)c(C)o1 | 12.4
70 | CCOc1ccc2cc(C3CC(c4ccco4)=NN3S(=O)(=O)c3ccccc3)c(Cl)nc2c1 (centres unmarked) | 8.7
71 | O=C(NC(=S)Nc1nc(-c2cccc([N+](=O)[O-])c2)cs1)c1ccccc1Cl | 9.48
72 | CC(C)[C@H](NC(=O)c1ccco1)C(=O)NC12CC3CC(CC(C3)C1)C2 | 4.68
73 | CCOc1ccccc1NC(=O)CSc1nc2[nH]ncc2c(=O)[nH]1 | 9.87
74 | CCOc1ccc(OCCCC(=O)Nc2nc3ccccc3[nH]2)cc1 | 10.6
75 | CN(C)c1ccc(/C=C2\C(=O)NC(=O)N(CCc3ccc(F)cc3)C2=O)cc1 | 13.3
76 | O=C(CCN1C(=O)C2C3CCC(C3)C2C1=O)Nc1cccc(Cl)c1 (centres unmarked) | 4.67
77 | CC1(C)CC(=O)c2c(O)cc(OCC(=O)Nc3ccc(CCO)cc3)cc2O1 | -8.39
78 | O=C(CS(=O)(=O)c1ccc(C(F)(F)F)cn1)NNC(=O)c1ccccc1 | 11
79 | CCCCn1cnc2cc(C)c(C)cc21 | 7.49
80 | COC(=O)CSc1nnc(-c2ccc(S(=O)(=O)NCc3cccs3)cc2)o1 | 4.7
81 | O=C(Nc1ccccc1O)c1cc(S(=O)(=O)N2CCOCC2)c(Cl)cc1Cl | -6.9
82 | CC1CCN(CC(=O)N2CCCc3c2c(=O)oc2ccc(OCc4ccccc4)cc32)CC1 | 3.63
83 | O=C(NC1CCCCC1)N(CCN1CCCC1)Cc1cc2cc3c(cc2[nH]c1=O)OCCO3 | 9.89
84 | c1ccc(-c2nnc(-c3ccccc3)c(-c3c[nH]c4ccccc34)n2)cc1 | 4.58
85 | CCOc1ccccc1NC(=O)NNS(=O)(=O)c1cc(C)ccc1C | 8.69
86 | Cc1ccc(N2CC(C)Cn3c2nc2c3c(=O)n(CC(=O)OCc3ccccc3)c(=O)n2C)cc1C (centres unmarked) | -4.99
